From PubChem BioAssay AID463173 (ICCB-Longwood Screening Facility, Harvard Medical School, 2010)
In all, about 52,000 compounds went through this assay and about 1,700 (3.3%) were called active. Rule as the data show it: active = survival mostly below about 52% (no sharp cut-off); inactive = mostly above about 56%. The list shows a part of the results.

These molecules were tested on Wild type (assay: S. aureus survival, RN4220 and DeltatarO strains – OD600, teichoic acid synthesis inhibitors, primary screen (AID 463173)). Conditions: S. aureus RN4220 wild type/DeltatarO growth, OD600, 18 h, stronger effect = lower value, screened at 18.75 µg/mL (by protocol).

Row | SMILES | survival
1 | CCOC(=O)c1c(NC(=O)CSc2cn(CCNC(=O)c3c(F)cccc3F)c3ccccc23)sc2c1CCC2 | inactive: 81%
2 | COc1ccc(CCN2C(=O)c3[nH]nc(-c4ccccc4O)c3C2c2ccc(OC)c(OC)c2)cc1 (stereo not drawn) | inactive: 55%
3 | CC(=O)Nc1c(C)nn(-c2ccccc2)c1N1CCC(C(=O)NCc2ccccc2Cl)CC1 | active: -4%
4 | CC1(C)CC(=O)C=C(NCC(O)c2ccccc2)C1 (stereo not drawn) | inactive: 98%
5 | Cc1ccc(S(=O)Cc2nc(-c3ccc(C(=O)NCc4cccc(C)c4)cc3)oc2C)cc1 (stereo not drawn) | inactive: 99%
6 | O=C(CCn1nc(-c2ccc(Cl)cc2)ccc1=O)NCCc1ccccc1 | inactive: 77%
7 | O=C(COc1ccccc1Cl)Nc1ccc2nc(SCC(=O)N3CCCC3)sc2c1 | inactive: 40%
8 | CCCn1c(=O)c2sccc2n2c(CCCC(=O)NCc3ccccc3)nnc12 | inactive: 99%
9 | CCOC(=O)COc1ccc(F)cc1C(=O)c1ccn2nc(-c3ccc(Cl)cc3)cc2n1 | inactive: 72%
10 | CCOC(=O)c1noc2ncnc(Nc3cccc(OC)c3)c12 | inactive: 73%
11 | CCOC(=O)C1=C(CS(=O)(=O)c2ccc(OC)c(Cl)c2)NC(=O)NC1c1cccc(OC)c1 (stereo not drawn) | inactive: 87%
12 | COc1cccc(NC(=O)CSc2nc(-c3ccccc3Cl)nc3c2Cc2c(CO)cnc(C)c2O3)c1 | inactive: 114%
13 | CCOc1ccc(-n2c(SCC(N)=O)nc3c(oc4ccccc43)c2=O)cc1 | inactive: 83%
14 | COc1ccc(-c2cc(-c3ccccc3)nc(SCC(=O)Nc3ccccc3F)c2C#N)cc1 | inactive: 155%
15 | O=C1c2cccc3cccc(c23)N1c1ccccc1 | inactive: 108%
16 | O=C(O)CNS(=O)(=O)c1ccc2ccccc2c1 | inactive: 113%
17 | O=C(Nc1nncs1)c1ccc(F)cc1 | inactive: 106%
18 | COc1ccc(C(=O)Nc2ccc3c(c2)CCCN3S(=O)(=O)c2ccc(C)cc2)c(OC)c1 | inactive: 60%
19 | CN1Cc2ccccc2CC1C(=O)O (stereo not drawn) | inactive: 115%
20 | CCc1ccc(S(=O)(=O)c2cn(C)c3cc(N4CCCC4)c(F)cc3c2=O)cc1 | inactive: 83%
21 | O=C(O)c1ccccc1C(=O)NC1=NN(c2ccccc2)CC1 | inactive: 112%
22 | O=C(NCc1ccco1)c1ccc2c(c1)N(Cc1ccc(Cl)cc1)C(=O)c1ccccc1S2(=O)=O | inactive: 109%

Row | SMILES | survival
23 | COC(=O)c1nnn(-c2ccc(Br)cc2)c1C(=O)OC | inactive: 84%
24 | CCOC(=O)CC(NC(=O)CCc1c(C)nc2ncnn2c1C)c1ccc(C)cc1 (stereo not drawn) | inactive: 86%
25 | CCOc1ccc(C(=O)NCCc2csc(-c3cccc(F)c3)n2)cc1OCC | inactive: 115%
26 | COc1cccc(NC(=O)C2CCCN(S(=O)(=O)c3cccc4nonc34)C2)c1 (stereo not drawn) | inactive: 104%
27 | Cc1cn2c(=O)c(S(=O)(=O)Nc3ccc(F)cc3F)c(C)nc2s1 | inactive: 84%
28 | O=C(NCCC1=CCCCC1)C1CCN(C(=O)N2CCOc3ccc(Cl)cc32)CC1 | inactive: 94%
29 | CN(Cc1ccccc1)c1ccc(-c2nc(-c3ccncc3)no2)cc1[N+](=O)[O-] | inactive: 95%
30 | Cc1cc(C)cc(C(=O)NCC(c2ccc(N(C)C)cc2)N2CCCC2)c1 (stereo not drawn) | inactive: 69%
31 | O=C(NCc1ccc(Cl)cc1)c1ccc(Cn2c(=O)c3cccn3c3cccnc32)cc1 | inactive: 84%
32 | Oc1ccccc1Nc1nc2ccccc2n2nnnc12 | inactive: 85%
33 | COc1ccc(-c2c(C)c3ccc(O)c(CN4CCCC(C)C4)c3oc2=O)cc1OC (stereo not drawn) | inactive: 91%
34 | O=C1CCc2cc(S(=O)(=O)NC(C(=O)Nc3cccc(F)c3)c3ccccc3)ccc2N1 (stereo not drawn) | inactive: 88%
35 | CC1Cc2ccccc2N1C(=O)Cn1c(-c2cccnc2)ccc(C#N)c1=O (stereo not drawn) | inactive: 128%
36 | COc1ccc(S(=O)(=O)N2CCN(Cc3nc4ccc(C)cc4o3)CC2)cc1 | inactive: 72%
37 | O=C(Cn1c(=O)n(Cc2nc(-c3ccccc3)no2)c(=O)c2ccccc21)Nc1cccc(Cl)c1 | inactive: 71%
38 | Cc1ccc(C)c(Nc2nnc(-c3ccc(C)c(S(=O)(=O)NCC4CCCO4)c3)c3ccccc23)c1 (stereo not drawn) | inactive: 88%
39 | COc1ccc(-c2nnc(SCC(=O)Nc3ccc(C)c(C)c3)s2)cc1 | inactive: 71%
40 | CCOc1ccc(N2C(=O)c3[nH]nc(-c4ccc(OC)cc4)c3C2c2cccs2)cc1 (stereo not drawn) | inactive: 81%
41 | COCCCNC(=O)c1ccc2c(c1)N(Cc1ccccc1F)C(=O)c1ccccc1S2=O (stereo not drawn) | inactive: 93%
42 | CC(C)C1Oc2cc3oc(=O)ccc3cc2/C1=N\NC(N)=S (stereo not drawn) | inactive: 114%
43 | COc1ccc(C(=O)/C=C/c2cn(CC(O)CN3CCc4ccccc43)c3ccccc23)cc1 (stereo not drawn) | inactive: 63%
44 | CCc1ccccc1NC(=O)CCCN1C(=O)CCn2nc(-c3cn(C)c4ccccc34)cc21 | inactive: 134%

Row | SMILES | survival
45 | COc1cc(Nc2nc(SCc3ccccc3Cl)nc3ccccc23)cc(OC)c1 | inactive: 95%
46 | COc1cccc(NC(=O)c2oc3ccccc3c2NC(=O)C2CCCCC2)c1 | inactive: 64%
47 | CCOCc1cc(CN2CCN(c3ccccc3OC)CC2)c(O)c2ncccc12 | inactive: 88%
48 | CCOc1ccc(NC(=O)CSc2oc(-c3ccccc3)nc2S(=O)(=O)c2ccc(Cl)cc2)cc1 | inactive: 178%
49 | COC(=O)c1cc(NC(=O)c2cc3sccc3n2Cc2ccc(Cl)cc2)cc(C(=O)OC)c1 | inactive: 89%
50 | S=c1sc2ccccc2n1CN1CCCCC1 | inactive: 102%
51 | Cc1cc(N2CCC(C(=O)N(CC(C)C)CC(C)C)CC2)n2nc(C)c(-c3ccc(Cl)cc3)c2n1 | inactive: 91%
52 | O=C1NC(NS(=O)(=O)c2ccccc2)(C(F)(F)F)C(=O)N1c1ccc(F)cc1 (stereo not drawn) | inactive: 76%
53 | COc1ccccc1NC(=O)Cn1c(=O)c(CNc2ccccc2)cc2cc(OC)c(OC)cc21 | inactive: 101%
54 | O=C(Cc1ccccc1)N=Nc1c(O)[nH]c2ccccc12 | inactive: 110%
55 | Fc1ccc(-n2ncc3c(Nc4cccc(Cl)c4)ncnc32)cc1 | inactive: 63%
56 | CSc1ncc(Cl)c(C(=O)N(Cc2ccc(C)cc2)C2CCS(=O)(=O)C2)n1 (stereo not drawn) | inactive: 88%
57 | COc1ccccc1C1C=C(c2ccc(C(C)C)cc2)Nc2nnnn21 (stereo not drawn) | inactive: 63%
58 | Cc1cc(C)cc(OCc2cc(=O)n3c(-c4ccccc4)csc3n2)c1 | inactive: 88%
59 | Cc1cccc(CNC(=O)c2ccc3c(c2)c(C)c(C)n3Cc2ccccc2)c1 | inactive: 80%
60 | O=C(c1cnn(-c2ccc(F)cc2)c1-n1cccc1)N1CCN(c2ccc(Cl)cc2)CC1 | inactive: 63%
61 | CCOC(=O)c1ccc(NC(=O)NC2CC3CCC(C2)N3Cc2nnnn2Cc2ccco2)cc1 (stereo not drawn) | inactive: 103%
62 | O=S(=O)(c1ccccc1)c1nnn2c1nc(NCc1ccc(Cl)cc1)c1sccc12 | inactive: 88%
63 | O=C1CCc2cc(S(=O)(=O)NCc3ccccc3Cl)cc3c2N1CC3 | inactive: 53%
64 | COc1cc(OC)cc(-c2nc3nc(C)c(CCC(=O)Nc4ccc(C)cc4C)c(C)n3n2)c1 | inactive: 93%
65 | O=C(CCn1ccc2cc(S(=O)(=O)N3CCCC3)ccc21)NCc1ccccc1F | inactive: 83%
66 | COc1cccc(NC(=O)Cn2cc(S(=O)(=O)Cc3ccccc3F)c3ccccc32)c1 | inactive: 70%

Row | SMILES | survival
67 | Cn1c(CC(=O)Nc2ccccc2)n[nH]c1=S | inactive: 100%
68 | CCOC(=O)N1CCN(Cc2nc3cc(NC(=O)c4cccc(C)c4)ccc3n2C(C)C)CC1 | inactive: 91%
69 | Cc1ccc(S(=O)(=O)c2nnn3c2nc(NCc2cccs2)c2sccc23)cc1 | inactive: 127%
70 | CCn1nc(C)c2c(-c3ccccc3)cc(=O)n(C(C)C(=O)NCc3ccccc3OC)c21 (stereo not drawn) | inactive: 70%
71 | Cc1cc(OC(C)C(=O)N(Cc2ccc(N(C)C)cc2)Cc2ccco2)ccc1Cl (stereo not drawn) | inactive: 81%
72 | CC1CCCN(CCCNC(=O)c2ccc3c(c2)N(Cc2ccc(Cl)cc2)C(=O)c2ccccc2S3(=O)=O)C1 (stereo not drawn) | inactive: 142%
73 | Cc1ccccc1C(=O)Nc1cccc(OCc2cc(=O)n3cccc(C)c3n2)c1 | inactive: 90%
74 | CCc1ccc(NC(=O)CN2C(=O)CSc3ccc(S(=O)(=O)N(C)C)cc32)cc1 | inactive: 69%
75 | CCOc1ccc(-c2ncccc2O)cc1 | inactive: 106%
76 | Cc1ccc(C)c(NC(=O)Cn2cc(S(=O)(=O)Cc3cccc(Cl)c3)c3ccccc32)c1 | inactive: 73%
77 | O=C(NCc1ccccc1)c1ccc2c(c1)CCN2S(=O)(=O)c1ccc(Cl)cc1 | inactive: 88%
78 | CCOc1ccc(NC(=O)N2CCN(c3ccc(Cl)c(Cl)c3)CC2)cc1 | inactive: 120%
79 | O=C(NCc1cccnc1)c1cn(C2CC2)c2cc(N3CCN(C(=O)c4cccc(Cl)c4)CC3)c(F)cc2c1=O | active: 0%
80 | CCn1cc(C(=O)NCCc2ccc(OC)c(OC)c2)c(=O)c2cc(S(=O)(=O)N(C)C3CCCCC3)ccc21 | inactive: 67%
81 | COc1ccc2cc3c(N)nn(C(=O)c4ccccc4Cl)c3nc2c1 | inactive: 74%
82 | COc1ccc(-c2noc(CN(C(=O)C(C)Oc3ccc(C)cc3)C(C)C)n2)cc1 (stereo not drawn) | inactive: 77%
83 | CC(C)Oc1ccc(C(=O)N(Cc2ccc(N(C)C)cc2)C2CCS(=O)(=O)C2)cc1 (stereo not drawn) | inactive: 79%
84 | CCc1ccc(NCc2cc3ccc(OC)cc3n(CC(=O)Nc3c(C)cc(C)cc3C)c2=O)cc1 | inactive: 81%
85 | COc1ccc(Cl)cc1NC(=O)Cn1ccn(-c2cc(C)cc(C)c2)c(=O)c1=O | inactive: 79%
86 | Cn1nnc2c(N3CCN(c4ccc(F)cc4)CC3)ncnc21 | inactive: 80%
87 | CCOC(=O)C1CCN(C2CC(=O)N(c3ccc(NC(C)=O)cc3)C2=O)CC1 (stereo not drawn) | inactive: 106%
88 | N#Cc1cc2c(nc1SCC(=O)N1CCOCC1)CCC2 | inactive: 102%
